Test results from the supplement of paper PMC3334620.
Whole data set: some 33,000 sequences, median “E-score (-0.5 to 0.5)” near -0.01, cut for the highest 2% near 0.26. The list shows a part of the results.

Each sequence was assayed against Ste12 (UniProt P13574) (assay: PBM E-score (8-mer binding enrichment) (E-score (-0.5 to 0.5)); higher = stronger / more preferred TF binding; most listed sequences are background and not binding sites). Conditions: protein concentration: 200 nM; construct: GST-DNA-binding domain.
Procedure, shortened: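 For each ungapped eight-base word taken together with its reverse complement, the Universal PBM Analysis Suite assigned an E-score. Binding data came from GST-tagged yeast transcription factors, applied at about 100-200 nM, on universal all-10-mer Agilent arrays made double-stranded by primer extension. Fluorescent anti-GST marked bound protein, and scans were normalised with masliner.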

Sequence | PBM E-score
CTCCGGAG | -0.0703
ATGCTATC | 0.0484
CTAAGTGA | -0.0834
CAGTTACG | -0.0984
TCCAGAAA | 0.168
CACTTGCA | 0.207
CAAGGCGA | -0.212
GGTGAGAA | -0.0216
ACTCGATC | 0.0483
ACTGTGAA | 0.27
AGTTTACC | -0.175
ACAGCATA | -0.0154
GACGACAC | -0.039
AACAGCCG | 0.0511
CAGATGAA | 0.17
ACCGGCAA | -0.104
GCCGACGC | -0.0186
AATGTCAG | 0.064
CAAAGATC | -0.0433
ACTCTCTA | -0.0608
AGCCAGCG | -0.134
CGGAGTGA | 0.0887
ACTCTCCT | -0.143
CCTAGGCC | -0.107
CAAAGGGG | -0.0222

Sequence | PBM E-score
AGATTCAG | -0.0532
ATACAAGG | 0.0765
CAAACAAG | 0.0644
GCATCTCA | -0.139
ATGCATCA | 0.161
AAACGCCC | -0.0205
CACAACTC | 0.145
GCAGCGCA | -0.146
CTTTATCA | 0.0116
ATCGTAAT | 0.161
CCATTCAA | -0.104
AGCTAATG | -0.111
CGAGACAA | 0.0198
ATACCTGC | -0.194
CGCTACAC | 0.0919
ACTTAACA | -0.0246
AGCTCACG | -0.234
ACAAAGCA | 0.29
TATCGCAA | -0.0312
CAGAAGCC | -0.0789
GAGTGAAC | 0.0184
CGCCGCGC | 0.177
AGGGACGG | 0.0535
GGAGACAC | -0.131
CACTATAC | -0.014

Sequence | PBM E-score
AATGTGTA | 0.0774
ATTCTAGG | 0.0796
AGGAACAG | -0.129
CTACAGAC | -0.113
GCAGCGAA | -0.176
CCTTGTTC | -0.0285
CACCCAGA | -0.02
CATTGGCG | -0.116
ATAGTGAC | -0.0488
ATCCTAAT | -0.0612
ACCCAGCA | -0.0858
ATCATCTA | -0.0267
ATGGTTGC | -0.0896
ATGACGTA | -0.145
CAAGAACG | 0.0165
ATGTTTTC | 0.172
ATCAAATA | 0.199
GATGTGCA | -0.0833
AACACTGT | -0.0147
AATGAGAG | -0.0696
AACTTAAA | 0.186
ATACTACA | 0.214
CACCAGCG | -0.0138
ATTGGCCC | -0.153
CCGCGGAC | -0.092

Sequence | PBM E-score
CAGTAAAG | 0.0406
GGACGACA | 0.117
CGCAGAAA | 0.0583
GGTAGTGA | -0.155
AACGTTTC | 0.328
CTCCTCTA | -0.177
CACCAACG | -0.133
AAAGCTAC | -0.167
CTCTTACC | -0.0547
TCGTCTCA | 0.134
GCATTCGA | -0.0034
CAGCAAAA | 0.132
CCCCCGCG | -0.161
CCGTAAAA | 0.107
GGGTAAAA | 0.295
AGCAGCCT | -0.0353
AAATTTCG | 0.134
AGTCAGTG | -0.0387
AGGAAACC | -0.0955
ACACGGGG | 0.088
GACGGAAA | 0.203
CTTGCCCA | -0.164
GTTCGCAA | 0.135
AATATCAG | 0.0475
ACTATAGT | 0.115

Sequence | PBM E-score
CTGCGGGC | -0.0275
CTGCGGCC | -0.0296
ACATAGGC | -0.0747
CCGATGTA | 0.0763
CTTCTACC | -0.152
ATAGCCAC | -0.153
TATAGAAA | 0.092
AAAGTACC | -0.0428
AGACCGTC | -0.164
CCTCCGCG | -0.0247
GTCTCGCA | -0.218
GAAGTACC | -0.167
GGCCCCCC | -0.126
GAAATAGA | 0.0446
CAGTCGTA | -0.0318
AATCGGGT | 0.0848
ACAACACC | -0.0636
CATTAAAG | 0.034
CGCCGGCG | 0.275
CGCTAGAC | -0.186
CTTAAAAC | 0.352
ATCCAAAA | 0.146
GCTTCAGA | 0.124
CCATAAGA | 0.063
CTCATGAG | -0.0245

Sequence | PBM E-score
GAACTAGC | 0.00172
AAACATGC | 0.231
AGTAACGC | 0.00391
ATTAGCTG | 0.0697
AAGGCCTG | -0.187
AGCGGGGC | -0.146
AGCGAATG | -0.0452
ACCATACG | -0.0611
GGTTTACA | -0.0303
CGGGCGCA | -0.0109
GATGAAAC | 0.494
AAAGTTTA | 0.199
TAATTACA | 0.0868
CAGAAACG | 0.052
GCGTCACC | -0.244
CTGAAATA | 0.202
AACCTTCC | -0.0876
ATCGAAAA | 0.125
AAGGAGGT | -0.112
GGGACCCC | -0.216
ACCACACC | 0.00862
CTGCTAAC | -0.195
ACCCGTGA | -0.0359
CACCTTCA | 0.0147
AGCCGCTG | -0.116

Sequence | PBM E-score
AGATCCCT | -0.128
AACTCTAG | -0.0059
AGGTCGGC | -0.099
CAAGTACC | -0.15
ACGGAGTG | -0.043
AGCGCCAT | -0.173
AGCCGCTC | -0.168
ATATGCGG | 0.117
CTCCTCGC | -0.242
TGCGAACA | -0.0424
GGGGAAGA | -0.106
ATCGCTAG | 0.0451
CACAGGGG | -0.0551
CACTGTGC | -0.0506
AATGACGG | 0.103
AAAATGAG | 0.124
CTGGTAAC | 0.0886
CCTGTCGA | -0.122
AGTTGCCA | -0.236
ACCATCCC | -0.00197
CTTCCCTA | -0.176
ACTCCAAA | 0.104
CCCGTACC | -0.0945
ACTAGGAT | -0.0135
AGCTAGGA | -0.0909

Sequence | PBM E-score
AACAGACT | 0.167
GCACCCAC | 0.0867
AATCTGGG | -0.0915
ATAAGCGG | -0.114
AAGGGGAA | -0.0456
CAGTGGTA | -0.208
CCCCGAAC | -0.0598
ACAGGGGC | 0.00449
AAGACAGT | -0.00908
AGTAGAAG | -0.139
ACTCGAGC | -0.161
TAGGAGAA | -0.0389
AAATCGGT | -0.0246
AAACTCGT | 0.136
CCCTTCAA | 0.0236
CCCCTGAC | 0.0225
AGTATTTC | 0.205
GATTCTCC | -0.148
TATGTGGA | 0.0901
ATGACCGG | -0.147
CACTCAGA | 0.129
GTGGATTA | 0.0079
AGCAGGAC | -0.0293
GTGGCCGA | -0.136
AAACTGAG | -0.16

Sequence | PBM E-score
AACGATCA | -0.144
CAGTTAGC | -0.218
ATCGTGAC | 0.0287
CAATTACC | -0.00263
ATTCTCGA | 0.17
GCTTAGTA | -0.102
CTGCTACC | -0.0316
CCATAGTA | 0.0358
AGTGAACG | -0.109
ACTCCTTG | -0.049
ACGCTACC | -0.279
AAATACGA | 0.00396
GCCAACCC | -0.0609
GAGGTTAA | 0.0122
ATTTTATC | 0.195
AGAGGCCC | -0.166
AGCGATTC | -0.0772
CGGTCGTA | -0.0858
GCAAAAGC | -0.0339
